# Assay results as given in the supplement of paper PMC8728848.
# The other results are listed elsewhere or left out.
# Legend:
# Experiment in all cases: glycan array binding signal (z-score within array); higher = stronger binding
# Conditions in all cases: glycan notation: IUPAC condensed, linker removed
# [1] = molecular target: Fuc(a1-2)[GalNAc(a1-3)]Gal(b1-4)GlcNAc(b1-3)Gal(b1-4)GlcNAc
# In short: (§1)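 The binding signal is a Z-score computed within each array and averaged over linkers. Arrays of the same protein sequence at different concentrations or buffers were also averaged together. Data originate from 3228 arrays in the Consortium for Functional Glycomics database, kept only where the protein sequence was available.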
# [2] = molecular target: Fuc(a1-2)[GalNAc(a1-3)]Gal(b1-4)GlcNAc(b1-3)Gal(b1-4)GlcNAc(b1-3)Gal(b1-4)GlcNAc
# In short: as §1
# [3] = molecular target: Fuc(a1-2)[GalNAc(a1-3)]Gal(b1-4)[Fuc(a1-3)]GlcNAc
# In short: as §1
# [4] = molecular target: Fuc(a1-2)[GalNAc(a1-4)]Gal(b1-4)GlcNAc
# In short: as §1
# [5] = molecular target: Fuc(a1-2)[GalNAc(b1-3)]Gal
# In short: as §1
# Fuc(a1-3)GlcNAc = molecular target: Fuc(a1-3)GlcNAc
# In short: as §1
# [6] = molecular target: Fuc(a1-3)[Gal(b1-4)]Glc6S
# In short: as §1
# [7] = molecular target: Fuc(a1-3)[Gal(b1-4)]GlcNAc
# In short: as §1
# [8] = molecular target: Fuc(a1-3)[Gal(b1-4)]GlcNAc(b1-2)Man(a1-3)[Fuc(a1-3)[Gal(b1-4)]GlcNAc(b1-2)Man(a1-6)]Man(b1-4)GlcNAc(b1-4)GlcNAc
# In short: as §1
# [9] = molecular target: Fuc(a1-3)[Gal(b1-4)]GlcNAc(b1-3)Gal(b1-3)[Fuc(a1-4)]GlcNAc
# In short: as §1
# [10] = molecular target: Fuc(a1-3)[Gal(b1-4)]GlcNAc(b1-3)GalNAc
# In short: as §1
# [11] = molecular target: Fuc(a1-3)[Gal(b1-4)]GlcNAc(b1-4)Gal(b1-4)[Fuc(a1-3)]GlcNAc
# In short: as §1
# [12] = molecular target: Fuc(a1-3)[Gal(b1-4)]GlcNAc(b1-4)Gal(b1-4)[Fuc(a1-3)]GlcNAc(b1-4)Gal(b1-4)[Fuc(a1-3)]GlcNAc
# In short: as §1
# [13] = molecular target: Fuc(a1-3)[Gal(b1-4)]GlcNAc(b1-6)[Gal(b1-3)GlcNAc(b1-3)]Gal(b1-4)Glc
# In short: as §1
# [14] = molecular target: Fuc(a1-3)[Gal(b1-4)]GlcNAc6S
# In short: as §1
# [15] = molecular target: Fuc(a1-3)[Gal3S(b1-4)]GlcNAc
# In short: as §1
# [16] = molecular target: Fuc(a1-3)[Gal3S(b1-4)]GlcNAc6S
# In short: as §1
# [17] = molecular target: Fuc(a1-3)[GalNAc(b1-4)]GlcNAc
# In short: as §1
# Fuc(a1-4)GlcNAc = molecular target: Fuc(a1-4)GlcNAc
# In short: as §1
# Fuc(b1-3)GlcNAc = molecular target: Fuc(b1-3)GlcNAc
# In short: as §1
# Gal(a1-2)Gal = molecular target: Gal(a1-2)Gal
# In short: as §1
# Gal(a1-3)Gal = molecular target: Gal(a1-3)Gal
# In short: as §1
# Gal(a1-3)Gal(b1-3)GlcNAc = molecular target: Gal(a1-3)Gal(b1-3)GlcNAc
# In short: as §1
# [18] = molecular target: Gal(a1-3)Gal(b1-3)GlcNAc(b1-2)Man(a1-3)[Gal(a1-3)Gal(b1-3)GlcNAc(b1-2)Man(a1-6)]Man(b1-4)GlcNAc(b1-4)GlcNAc
# In short: as §1
# [19] = molecular target: Gal(a1-3)Gal(b1-3)[Fuc(a1-4)]GlcNAc(b1-2)Man(a1-3)[Gal(a1-3)Gal(b1-3)[Fuc(a1-4)]GlcNAc(b1-2)Man(a1-6)]Man(b1-4)GlcNAc(b1-4)GlcNAc
# In short: as §1
# Gal(a1-3)Gal(b1-4)Glc = molecular target: Gal(a1-3)Gal(b1-4)Glc
# In short: as §1
# Gal(a1-3)Gal(b1-4)GlcNAc = molecular target: Gal(a1-3)Gal(b1-4)GlcNAc
# In short: as §1
# [20] = molecular target: Gal(a1-3)Gal(b1-4)GlcNAc(b1-3)GalNAc
# In short: as §1
# [21] = molecular target: Gal(a1-3)Gal(b1-4)[Fuc(a1-3)]GlcNAc
# In short: as §1
# [22] = molecular target: Gal(a1-3)Gal(b1-4)[Fuc(a1-3)]GlcNAc(b1-2)Man(a1-3)[Gal(a1-3)Gal(b1-4)[Fuc(a1-3)]GlcNAc(b1-2)Man(a1-6)]Man(b1-4)GlcNAc(b1-4)GlcNAc
# In short: as §1
# Gal(a1-3)GalNAc = molecular target: Gal(a1-3)GalNAc
# In short: as §1
# [23] = molecular target: Gal(a1-3)[Gal(a1-4)]Gal(b1-4)GlcNAc
# In short: as §1
# [24] = molecular target: Gal(a1-4)Gal(b1-3)GlcNAc(b1-2)Man(a1-3)[Gal(a1-4)Gal(b1-3)GlcNAc(b1-2)Man(a1-6)]Man(b1-4)GlcNAc(b1-4)GlcNAc
# In short: as §1
# Gal(a1-4)Gal(b1-4)Glc = molecular target: Gal(a1-4)Gal(b1-4)Glc
# In short: as §1
# Gal(a1-4)Gal(b1-4)GlcNAc = molecular target: Gal(a1-4)Gal(b1-4)GlcNAc
# In short: as §1
# [25] = molecular target: Gal(a1-4)Gal(b1-4)GlcNAc(b1-2)Man(a1-3)[Gal(a1-4)Gal(b1-4)GlcNAc(b1-2)Man(a1-6)]Man(b1-4)GlcNAc(b1-4)GlcNAc
# In short: as §1
# [26] = molecular target: Gal(a1-4)Gal(b1-4)GlcNAc(b1-3)Gal(b1-4)Glc
# In short: as §1
# Gal(a1-4)GlcNAc = molecular target: Gal(a1-4)GlcNAc
# In short: as §1
# Gal(a1-6)Glc = molecular target: Gal(a1-6)Glc
# In short: as §1
# Gal(b1-2)Gal = molecular target: Gal(b1-2)Gal
# In short: as §1
# Gal(b1-3)Gal = molecular target: Gal(b1-3)Gal
# In short: as §1
# Gal(b1-3)Gal(b1-4)GlcNAc = molecular target: Gal(b1-3)Gal(b1-4)GlcNAc
# In short: as §1
# [27] = molecular target: Gal(b1-3)Gal(b1-4)GlcNAc(b1-2)Man(a1-3)[Gal(b1-3)Gal(b1-4)GlcNAc(b1-2)Man(a1-6)]Man(b1-4)GlcNAc(b1-4)GlcNAc
# In short: as §1
# Gal(b1-3)GalNAc = molecular target: Gal(b1-3)GalNAc
# In short: as §1
# [28] = molecular target: Gal(b1-3)GalNAc(a1-3)[Fuc(a1-2)]Gal(b1-4)Glc
# In short: as §1
binder,measurement,setting,value
"exo-alpha-sialidase (Propionibacterium acnes), Q6A7G1 (protein) GSHMSGRAPAPVAATTQPKLVTGDITSTDQSGTNLFFGKKIVRNARGAIMKVDRTWPAAVPAPLPDVRADSSTRMLLGPVVDLAVNEHPEGVFYRIPALATASNGDLLASYDLRPGSAGDAPNPNSIVQRRSRDNGRTWGPQTVIHAGTPGRRKVGYSDPSYLVDPATGRILNFHVKSYDRGFATSEVGTDPDDRHVLHAEVSTSTDNGHTWTHRDITREITSDPTTRTRFVASGQGIALLHGPHAGRLIAQMTVRNSVGQQAQSIYSDDHGITWHAGNPVGRMMDENKVVELSDGTLMLNSRDAARSGRRKVAYSQDGGLTWGPVKLVDDLIDPTNNAQIIRAYPNARAGSAKARILLFTNARNATERVNGTLSVSCDDGRTWVSHQTYMPGEVGYTTAAVQSDGALGVLWERDGIRYSTIPMGWLNSVCPLAPSGRPTSGKPTSGTSLPPTAT",glycan array binding signal (z-score),[1],-0.368
same,glycan array binding signal (z-score),[2],-0.335
same,glycan array binding signal (z-score),[3],-0.223
same,glycan array binding signal (z-score),[4],-0.353
same,glycan array binding signal (z-score),[5],-0.308
same,glycan array binding signal (z-score),Fuc(a1-3)GlcNAc,-0.3
same,glycan array binding signal (z-score),[6],-0.356
same,glycan array binding signal (z-score),[7],-0.339
same,glycan array binding signal (z-score),[8],-0.301
same,glycan array binding signal (z-score),[9],-0.358
same,glycan array binding signal (z-score),[10],-0.21
same,glycan array binding signal (z-score),[11],-0.311
same,glycan array binding signal (z-score),[12],-0.365
same,glycan array binding signal (z-score),[13],-0.335
same,glycan array binding signal (z-score),[14],-0.351
same,glycan array binding signal (z-score),[15],-0.348
same,glycan array binding signal (z-score),[16],-0.19
same,glycan array binding signal (z-score),[17],-0.307
same,glycan array binding signal (z-score),Fuc(a1-4)GlcNAc,-0.332
same,glycan array binding signal (z-score),Fuc(b1-3)GlcNAc,-0.252
same,glycan array binding signal (z-score),Gal(a1-2)Gal,-0.331
same,glycan array binding signal (z-score),Gal(a1-3)Gal,-0.339
same,glycan array binding signal (z-score),Gal(a1-3)Gal(b1-3)GlcNAc,-0.273
same,glycan array binding signal (z-score),[18],-0.211
same,glycan array binding signal (z-score),[19],-0.357
same,glycan array binding signal (z-score),Gal(a1-3)Gal(b1-4)Glc,-0.338
same,glycan array binding signal (z-score),Gal(a1-3)Gal(b1-4)GlcNAc,-0.341
same,glycan array binding signal (z-score),[20],-0.36
same,glycan array binding signal (z-score),[21],-0.342
same,glycan array binding signal (z-score),[22],-0.228
same,glycan array binding signal (z-score),Gal(a1-3)GalNAc,-0.32
same,glycan array binding signal (z-score),[23],-0.349
same,glycan array binding signal (z-score),[24],-0.363
same,glycan array binding signal (z-score),Gal(a1-4)Gal(b1-4)Glc,-0.366
same,glycan array binding signal (z-score),Gal(a1-4)Gal(b1-4)GlcNAc,-0.365
same,glycan array binding signal (z-score),[25],-0.361
same,glycan array binding signal (z-score),[26],-0.337
same,glycan array binding signal (z-score),Gal(a1-4)GlcNAc,-0.348
same,glycan array binding signal (z-score),Gal(a1-6)Glc,-0.278
same,glycan array binding signal (z-score),Gal(b1-2)Gal,-0.295
same,glycan array binding signal (z-score),Gal(b1-3)Gal,-0.314
same,glycan array binding signal (z-score),Gal(b1-3)Gal(b1-4)GlcNAc,-0.353
same,glycan array binding signal (z-score),[27],-0.36
same,glycan array binding signal (z-score),Gal(b1-3)GalNAc,-0.298
same,glycan array binding signal (z-score),[28],-0.337
